Results published in PMC4336329 (PLoS ONE, 2015).
The campaign covered roughly 310,000 compounds. About 2,200 (0.71%) showed an effect of 50% or more. The effect is printed as a negative number. The list shows a part of the results.

Target: human ether-à-go-go-related gene (hERG) potassium channel (human, UniProt Q12809)
Assay: primary screen, population patch clamp on CHO cells stably expressing hERG

Sequence of human ether-à-go-go-related gene (hERG) potassium channel (Q12809 whole entry, looked up): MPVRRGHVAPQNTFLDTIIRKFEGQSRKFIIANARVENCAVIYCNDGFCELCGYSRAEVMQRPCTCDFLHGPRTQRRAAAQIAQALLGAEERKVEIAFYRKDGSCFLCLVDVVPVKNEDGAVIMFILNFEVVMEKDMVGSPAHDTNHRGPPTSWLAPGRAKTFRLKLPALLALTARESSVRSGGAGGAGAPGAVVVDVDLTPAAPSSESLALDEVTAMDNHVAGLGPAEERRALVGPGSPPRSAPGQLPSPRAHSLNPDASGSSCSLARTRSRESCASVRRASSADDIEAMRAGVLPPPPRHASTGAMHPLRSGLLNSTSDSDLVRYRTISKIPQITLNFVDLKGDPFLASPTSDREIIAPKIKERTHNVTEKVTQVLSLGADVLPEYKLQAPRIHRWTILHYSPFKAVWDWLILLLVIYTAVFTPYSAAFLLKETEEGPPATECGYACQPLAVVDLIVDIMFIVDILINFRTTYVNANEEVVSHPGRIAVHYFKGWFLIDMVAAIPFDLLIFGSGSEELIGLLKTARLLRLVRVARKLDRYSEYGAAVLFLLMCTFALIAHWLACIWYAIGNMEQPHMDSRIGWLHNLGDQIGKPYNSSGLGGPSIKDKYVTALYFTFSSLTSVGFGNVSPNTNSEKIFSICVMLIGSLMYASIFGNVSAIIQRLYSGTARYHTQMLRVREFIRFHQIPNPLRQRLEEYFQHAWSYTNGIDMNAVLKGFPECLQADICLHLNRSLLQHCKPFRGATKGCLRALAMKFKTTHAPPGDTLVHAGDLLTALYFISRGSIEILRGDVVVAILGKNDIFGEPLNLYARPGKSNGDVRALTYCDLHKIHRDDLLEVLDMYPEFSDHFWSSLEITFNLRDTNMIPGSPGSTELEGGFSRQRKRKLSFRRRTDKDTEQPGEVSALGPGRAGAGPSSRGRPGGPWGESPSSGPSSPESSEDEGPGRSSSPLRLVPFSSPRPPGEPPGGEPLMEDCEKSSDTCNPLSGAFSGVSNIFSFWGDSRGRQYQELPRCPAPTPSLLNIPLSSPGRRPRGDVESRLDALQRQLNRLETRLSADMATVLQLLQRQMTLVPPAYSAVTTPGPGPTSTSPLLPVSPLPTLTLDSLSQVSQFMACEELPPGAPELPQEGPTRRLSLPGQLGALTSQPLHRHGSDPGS

Row | SMILES | hERG current change (%, negative = inhibition) at 1uM [%]
1 | CC(=O)c1ccc(NS(=O)(=O)c2ccc3c(c2)CCC(=O)N3)cc1 | 17.6
2 | CC(=O)Nc1ccc(-c2cc3ccccc3o2)cc1 | 4.1
3 | O=C(Nc1nc(-c2ccccc2)cs1)C1CCCO1 (stereo not drawn) | -0.939
4 | O=C(O)C1CCCCC1C(=O)NCc1ccncc1 (stereo not drawn) | 6.68
5 | COc1cc(/C=C(\C#N)C(=O)Nc2cccc3ncccc23)ccc1O | 9
6 | COc1ccc(NC(=O)CN(c2ccccc2F)S(=O)(=O)c2ccc(C)cc2)c(OC)c1 | 8.92
7 | COc1ccc(CCNC(=O)C(C)n2nc(C)n3c(cc4occc43)c2=O)cc1OC (stereo not drawn) | 12.2
8 | CCOc1ccc2oc(C(=O)NCC3CCCO3)c(C)c2c1 (stereo not drawn) | -3.58
9 | Cc1cc(NC(=O)C2CCN(C(=O)c3ccco3)CC2)ccc1Br | -6.61
10 | CN1CCN(CCC(=O)N2c3ccccc3Sc3ccc(C(F)(F)F)cc32)CC1.Cl | 3.28
11 | Cc1nc2ccccc2c(=O)n1-c1ccc(F)cc1 | 1.72
12 | O=C(NC1CCCCC1)N1CCN(c2ccc(Cl)cc2)CC1 | -4.85
13 | N#C/C(C(N)=O)=C1/SC(Cc2ccc(F)cc2)C(=O)N1c1ccccc1 (stereo not drawn) | 12.3
14 | O=C(Cc1ccccc1)NCC(=O)OCC(=O)c1ccccc1Cl | 17.5
15 | COC(=O)c1ccc(COC(=O)CNC(=O)c2ccco2)cc1 | 12.4
16 | CCNc1nc(NCc2ccccc2)nc(SCC(N)=O)n1 | 8.2
17 | O=C(CSc1nnc(CNC(=O)C23CC4CC(CC(C4)C2)C3)n1-c1ccc(F)cc1)Nc1ccccc1 | 15.5
18 | CC1CCCN(C(=O)c2nn(C)c3c2CS(=O)(=O)c2ccccc2-3)C1 (stereo not drawn) | 8.88
19 | O=C(CC1C(=O)N(c2ccccc2)C(=S)N1c1ccccc1)c1ccccc1 (stereo not drawn) | 8.53

Row | SMILES | hERG current change (%, negative = inhibition) at 1uM [%]
20 | COc1ccc(CCNc2nncc(=O)[nH]2)cc1OC | 7.14
21 | Cc1ccc(S(=O)(=O)NC(=NCC(=O)O)c2ccc(F)cc2)cc1 | 11.2
22 | CN(C)C(=O)c1cc(C(=O)c2ccccc2F)c[nH]1 | 9.33
23 | CCN1C(=O)[C@@H]2[C@H](C1=O)[C@@H]1C(=O)Nc3ccccc3C(=O)N1[C@@H]2c1cccc(OC)c1 | -2.68
24 | CC(=O)Nc1ccc(N(C(=O)CNC(=O)c2ccco2)C(C(=O)NCC2CCCO2)c2ccccc2)cc1 (stereo not drawn) | 10.9
25 | O=C(NCCCN1CCOCC1)C(=O)NCC1OCCN1S(=O)(=O)c1ccc(F)cc1 (stereo not drawn) | 7.92
26 | COC(=O)c1ccc(CSc2nc(N3CCOCC3)c3c(c2C#N)CC(C)(C)OC3)o1 | 3.72
27 | CCCC(O)(CCC)C(=O)NN(C(=O)CCl)c1cccc(C)c1 | 3.61
28 | COc1cc2nc(SCc3ccc(Cl)cc3Cl)n(Cc3cccs3)c(=N)c2cc1OC | 9.95
29 | CCC1(C)Cc2ccccc2-c2nc(SC)[nH]c(=O)c21 (stereo not drawn) | 10.9
30 | Oc1cccc2ccc(/C=C/c3ccc(Br)s3)nc12 | 4.97
31 | CCOC(=O)/C=C/C(=O)OCC(=O)Nc1ccc(Cl)cn1 | 15.2
32 | CN(CCOc1ccc(Cl)cc1)c1ccc(S(=O)(=O)N2CCCCC2)cn1 | -10.5
33 | CSC1=N/C(=C\c2c(F)cccc2Cl)C(=O)S1 | -10.3
34 | CCOC(=O)NC(Nc1ncccn1)(C(F)(F)F)C(F)(F)F | 9.03
35 | C=CCN1C(=O)c2ccc(C(=O)N(CC(C)C)c3c(N)n(CCCC)c(=O)[nH]c3=O)cc2C1=O | 21
36 | COc1cccc(CNC(=O)Cn2c(=O)oc3cc(S(=O)(=O)N4CCCCC4)ccc32)c1 | 11.4
37 | COc1ccc(/C(C)=N/NS(=O)(=O)c2ccccc2)c(OC)c1 | 10.9
38 | CCc1ccc(CN2C(=O)CCC2(C)C(=O)NC2CCCC2)cc1 (stereo not drawn) | -1.47

Row | SMILES | hERG current change (%, negative = inhibition) at 1uM [%]
39 | COc1ccc(Br)cc1CN1C(=O)NC2(CCCCCC2)C1=O | 6.05
40 | COc1ccccc1C(=O)Nc1cccc(NC(=O)c2ccccc2C)c1 | 16.2
41 | CC1CCC(NCC(=O)Nc2cccc(S(N)(=O)=O)c2)CC1.O=C(O)C(=O)O (stereo not drawn) | 13.8
42 | COc1ccc(CN2CCN(Cc3c[nH]c4ccccc34)CC2)cc1.O=C(O)C(=O)O | -27.2
43 | Cc1cccc(-c2noc(CNC(=O)c3ccco3)n2)c1 | 15.4
44 | Cc1nnc(Nc2ccc(C(=O)O)cc2)[nH]c1=O | 10
45 | Cc1cc(/C=C2\SC(=S)NC2=O)c(C)n1C | 9.47
46 | Cc1ccc(-c2c(C(=O)N/N=C/c3c[nH]c4ccccc34)nnn2-c2nonc2N)cc1 | 16.1
47 | Cc1nnc(NC(=O)c2c(F)cccc2F)s1 | 18.5
48 | CSc1ncc2c(n1)-c1cc(C)ccc1SC2 | 17.4
49 | Cc1cccc(NC(=S)NNC(=O)c2nn(C)cc2Cl)c1 | 6.26
50 | O=C(CN(Cc1cccs1)C(=O)CCC(=O)Nc1nccs1)NCc1ccccc1 | -0.952
51 | Cc1ccc(NC(=O)c2sc(C)nc2C)c(C)c1 | 2.9
52 | Cc1ccc(C)c(C(=O)COc2ncnc3ccccc23)c1 | 11.8
53 | CCNC(=O)C(CCSC)NS(=O)(=O)c1ccc(C)cc1 (stereo not drawn) | 2.77
54 | COc1cccc(-c2cc3nc4c(c(NCC(C)(C)CN(C)C)n3n2)CCCC4)c1 | 18.3
55 | COc1cc(CN2CCN(CC3CC3)CC2CCO)cc(OC)c1 (stereo not drawn) | 3.66
56 | CC1=NN(c2ccccc2)C(=O)/C1=C\N1CC(C)OC(C)C1 (stereo not drawn) | -5.63
57 | O=C(CSc1ccc(-c2cccnc2)nn1)c1ccc([N+](=O)[O-])cc1 | -1.58
